Source: PubChem BioAssay AID1346428 (National Center for Advancing Translational Sciences (NCATS), 2018)
The campaign covered roughly 48,000 compounds. About 1,200 (2.5%) were called active. Another 2% or so got no clear call; they are omitted.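 The calls were made as follows: active = activation of at least 60% and not above a set upper limit (about 1 call in 100 departs from these limits); inconclusive = activation of 40% to 60%, or above that upper limit; inactive = activation under 40%.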 This is one part of the list.

Target: Probable G-protein coupled receptor 32 (Homo sapiens) (UniProt O75388)
Chain of UniProt O75388 (O75388 whole entry, looked up): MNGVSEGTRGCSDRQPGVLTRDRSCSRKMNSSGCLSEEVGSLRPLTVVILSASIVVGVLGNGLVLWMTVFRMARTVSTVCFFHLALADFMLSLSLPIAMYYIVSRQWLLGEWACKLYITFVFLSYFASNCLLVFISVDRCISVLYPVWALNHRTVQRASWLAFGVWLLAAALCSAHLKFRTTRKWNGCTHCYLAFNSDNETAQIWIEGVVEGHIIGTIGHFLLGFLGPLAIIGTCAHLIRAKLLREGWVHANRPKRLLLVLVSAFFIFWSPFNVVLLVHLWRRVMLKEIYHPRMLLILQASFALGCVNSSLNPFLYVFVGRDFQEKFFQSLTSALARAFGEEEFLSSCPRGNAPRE
Assay: qHTS for Agonists of Human Resolvin D1 Receptor DRV1; also: 0% is about no effect
Conditions: CHO-K1 GPR32 beta-arrestin PathHunter luminescence, 90 min; at 76.9 µM; stronger effect = higher value; zero percent set by DMSO-only wells
Outline: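 Agonism was scored as beta-arrestin recruitment to ProLink-fused GPR32 in stably transfected CHO-K1 cells, giving a chemiluminescent beta-Gal signal; compounds were incubated 90 min at 37 °C.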

activation, inactive:
COc1cc(Cl)c(C)cc1Nc1nc2ccccc2nc1NS(=O)(=O)c1ccccc1 26.2%, COc1ccccc1N1CCN(C(=O)c2cnn(-c3ccc(C)c(C)c3)c2C2CCN(C(=O)OC(C)(C)C)CC2)CC1 -13.7%, Cc1ccc(N2CCN(C(=O)NCc3noc4ccccc34)CC2C)cc1 (stereo not given) -18.8%, Cc1cccc(C(=O)Nc2ccc(-c3nc4cc(C(C)C)ccc4o3)cc2)c1 19.3%, COc1ccc(S(=O)(=O)n2nc(C)c(S(=O)(=O)N3CCCCCC3)c2C)cc1OC 4.63%, CCOC(=O)c1ccc(NC(=O)C2CCN(C(=O)N3CC(C)Oc4ccc(C)cc43)CC2)cc1 (stereo not given) -6.29%, CCOC(=O)c1c(C)oc2ncnc(NCCCN3CCN(c4cc(C)ccc4C)CC3)c12 -3.7%, COc1ccc(-c2c3c(nc4sc(C(=O)Nc5ccc(F)cc5)c(N)c24)CC(C)(C)CC3=O)cc1 6.81%, CCCOc1ccc(C(=O)N(Cc2cccs2)c2ccc(C)cc2)cc1 17.4%, COc1ccc(Cl)cc1S(=O)(=O)N1CCN(Cc2cccc(F)c2)CC1 16%, Cc1ccccc1-c1nc(C(N)=O)c2c(n1)n(-c1ccc3c(c1)OCO3)c(=O)n2C -3.19%, Nc1ccncc1N -2.51%, CC(=O)c1cccc(NC(=O)CSc2nnc3ccc(-c4ccc(C)cc4)nn23)c1 -5.87%, O=S(=O)(NCCc1csc2nc(-c3ccc(Cl)cc3)nn12)c1ccc(Oc2ccccc2)cc1 25.9%, Cc1cc2nc(-c3ccc(Cl)cc3)cc(C(F)(F)F)n2n1 -2.71%, O=C(NCc1ccco1)C1CCN(C(=O)N2CCOc3ccc(Cl)cc32)CC1 -2.03%, CN(C)S(=O)(=O)c1ccc2c(c1)N(CC(=O)NCc1cccc(Br)c1)C(=O)CS2 0%, COc1ccccc1-c1nnc2n(CCc3ccccc3)c(=O)c3ccccc3n12 -0.614%, O=C1CC(c2nnc(Cc3ccc(Cl)cc3)o2)CN1c1ccccc1 (stereo not given) -4.81%, CCn1c(=N)c(C(=O)NC2CCCCC2)cc2c(=O)n3cccc(C)c3nc21 -1.55%, O=c1cc2nc(-c3cccs3)nc(SCCOc3ccc(Cl)cc3)n2[nH]1 -0.85%, Cc1ccc(-c2nnc(NC(=O)c3ccc4c(c3)OCCO4)o2)c(C)c1 -5.75%, Cc1cc2c(cc1S(=O)(=O)CCC(=O)NC1CCC(C)CC1)OCC(=O)N2 (stereo not given) -10%, Cc1ccc(C)c(Cn2c(=O)n(Cc3ccc(C(=O)NC4CCN(Cc5ccccc5)CC4)cc3)c(=O)c3ccccc32)c1 -9.01%, CC(CCc1ccccc1)NC(=O)CSc1n[nH]c(-c2ccccc2Cl)n1 (stereo not given) -0.947%, O=C(O)C(=O)Nc1cccc(-c2nn[nH]n2)c1 -38.8%, COc1cccc(N2CC(NC(=O)c3cccs3)CC2=O)c1 (stereo not given) -10.8%, Cc1cc(C)c(NC(=O)C(C)n2nc(C)c3sc4ccccc4c3c2=O)c(C)c1 (stereo not given) -17.3%, COc1cccc(CNC(=O)CCc2c(C)nn(-c3ccc(N4CCCC4)nn3)c2C)c1 -9.68%, Cc1cc(Cl)ccc1NC(=O)C1CCCN(c2nnc(C)c3c(C)n(-c4ccccc4)nc23)C1 (stereo not given) 5.05%, O=S(=O)(NCC(c1ccco1)S(=O)(=O)c1cccs1)c1ccccc1 (stereo not given) -20.7%, Cc1ccc(OC(C)C(=O)N2CCN(CCc3ccccn3)CC2)cc1C (stereo not given) -3.79%, Cc1cc(F)ccc1NC(=O)C1CCCN(C(=O)c2cnn(-c3ccccc3)c2-n2cccc2)C1 (stereo not given) -37.6%, COc1ccc(OC(=O)c2cn(-c3cccc(OC)c3)c(=O)c3ccccc23)cc1 -14.8%, Cc1cccc(OCC(=O)Nc2ccc3nc(SCc4ccccc4)sc3c2)c1 -5.65%, Cc1nc2ccccc2n1CCc1nc2c3ccccc3nc(SCc3ccccc3F)n2n1 -4.43%, CCCc1nnc(NC(=O)CSc2nnc3c4ccccc4n(CC)c3n2)s1 1.94%, CCc1ccc(CNC(=O)c2ccc(Cn3c(=O)c4cccn4c4cccnc43)cc2)cc1 -8.09%, COCCn1c(C)cc(O)c(C(c2cccc(F)c2)N2CCN(c3ccccc3)CC2)c1=O (stereo not given) -13.5%, CCc1cccc(C)c1NC(=O)c1cc(CN2CCCC2)on1 -6.14%, CC(C)NC(=O)C1CCCN(S(=O)(=O)c2ccc3c(ccn3C)c2)C1 (stereo not given) -16.8%, Cc1ccc(OCCCC(=O)Nc2sc3c(c2C(N)=O)CCC(C)C3)cc1 (stereo not given) 12.4%, CCOc1ccc(C(=O)N2CC(=O)Nc3ccc(F)cc3C2c2ccc(F)cc2)cc1 (stereo not given) -13.2%, COc1ccc(N(CC(=O)N2CCN(c3cccc(Cl)c3)CC2)S(=O)(=O)c2c(C)noc2C)cc1 -14.9%, COc1ccc(-c2oc3ncn4nc(COc5ccc(Cl)cc5)nc4c3c2-c2ccc(OC)cc2)cc1 -10.7%, CCc1nnc2c(Nc3cc(OC)c(Cl)cc3OC)nc3ccccc3n12 -3.96%, COc1cc(C(=O)N2CCCCCCC2)cc(OC)c1OC -4.03%, O=C(Nc1ccc2oc(-c3cccc4c(Br)cccc34)nc2c1)c1cccc(Cl)c1 -6.08%, CCOC(=O)N1CCc2c(sc3c2c(=O)n(CCc2ccccc2)c(=O)n3CC(=O)Nc2ccccc2C)C1 -2.81%, COc1ccc(S(=O)(=O)N(CCc2ccccc2)CC(=O)Nc2cc(Cl)ccc2C)cc1 -3.26%, CCCSc1nnc(NC(=O)c2cc(=O)c3ccccc3o2)s1 3.82%, O=C(c1cccc(Cl)c1)N(Cc1cccc(F)c1)C1CCS(=O)(=O)C1 (stereo not given) -5.81%, NC(=O)c1c(NC(=O)CS(=O)(=O)c2ccc(Cl)cc2)sc2c1CCCC2 -1.81%, C=CCN1CCc2c(cc(O)c(O)c2Cl)C(c2ccccc2)C1 (stereo not given) -4.1%, CCCN1CCN(CCCNC(=O)c2cc3c(s2)-c2c(C)cccc2OC3)CC1 -6%, COC(=O)c1cc2sccc2n1Cc1c(C)cc(C)cc1C -4.24%, COc1ccc(NC(=O)C2CCCN(S(=O)(=O)c3ccc4[nH]c(=O)ccc4c3)C2)cc1Cl (stereo not given) 8.74%, CCOc1cccc(C(=O)N(Cc2ccc(C(C)C)cc2)C2CCS(=O)(=O)C2)c1 (stereo not given) -19.1%, Cc1ccc(C)c(OCCCC(C)(C)C(=O)O)c1 2.23%, COc1ccccc1C(=O)Nc1ccccc1OCc1cc(=O)n2cc(C)sc2n1 6.6%, Cc1ccc(NC(=O)C2CCN(C(=O)c3sc4nc[nH]c(=O)c4c3C)CC2)cc1F -9.89%, Cc1ccc(-c2nn(CCC(=O)Nc3ccc(OC(F)(F)F)cc3)c(=O)c3ccccc23)cc1 -2.23%, Cc1ccccc1NC(=O)c1c(C)oc2ccc(O)c(CN(C)Cc3ccccc3)c12 -18.3%, Cc1ccc(-c2noc(-c3ccccc3OCC(=O)Nc3ccccc3[N+](=O)[O-])n2)cc1 4.93%, CC(C)Oc1ccc(C(=O)NCCc2csc(-c3cccc(F)c3)n2)cc1 27.5%, CCN1C(=O)C(Cc2nc3ccccc3c(=O)n2-c2cccc(C)c2)c2ccccc21 (stereo not given) -17.7%, CC1=C(C(=O)O)N2C(=O)[C@@H](NC(=O)C(N)C3=CCC=CC3)[C@H]2SC1 (stereo not given in full) -9.06%, COc1cccc(NC(=O)Cn2c(=O)n(-c3ccc(C)cc3)c(=O)c3ccccc32)c1 -1.41%, CCCC(=O)N1c2nc(-c3ccco3)nn2C2(CCCCC2)[C@@H]2CCCC[C@@H]21 -30.6%, O=C(Nc1ncc(Cc2ccc(F)cc2)s1)c1ccc2c(c1)CC(c1ccccc1)OC2=O (stereo not given) 17.3%, CCCCCn1c(CCCNC(=O)c2ccccc2)nc2ccccc21 47.3%, Cc1nn(C)c2c1c(C(F)(F)F)cc(=O)n2CC(=O)Nc1ccc(F)cc1F -5.49%, Cc1nnc(N2CCC(C(=O)NC3CCC(C)CC3)CC2)c2nn(-c3ccc(Cl)cc3)c(C)c12 (stereo not given) -4.23%, Cc1ccccc1NC(=O)CSc1nccn1C 16.4%, Cc1cccc(N(C)C(=O)Cn2cnc3nc4c(cc3c2=O)CCCC4)c1 -5.78%, Cc1ccc(-n2ncc3c(Nc4ccc(Oc5ccccc5)cc4)ncnc32)cc1 19.1%, CCc1ccccc1NC(=O)N1CCN(Cc2nc3ccc(C)cc3o2)CC1 -19.4%, COCCn1c(C)cc(O)c(C(c2ccccc2)N2CCCCC2)c1=O (stereo not given) 26.4%, Cc1cccc(N2CCN(C(=O)c3cc4ccc5cccnc5c4[nH]3)CC2)c1C -18.2%, CC(C)Cc1nn2c(=O)cc(COC(=O)c3cccc(NC(=O)c4ccccc4)c3)nc2s1 -8.8%, COc1ccc(NC(=O)c2cc(C3CC3)nc3c2c(C)nn3-c2ccccc2)c(OC)c1 -9.26%, CCCN(CCC)CCNC(=O)c1cc2c(=O)oc3ccc(C)cc3c2s1 -1.42%, Cc1c(C(=O)Nc2cccc(C(F)(F)F)c2)sc2nc3n(c(=O)c12)CCC3 12.8%, Cc1cccc(Cn2cc3c(=O)n(CC(=O)Nc4cccc(C)c4C)nc-3c3cc(F)ccc32)c1 -15.3%, CCOCCCNC(=O)Cn1ncc2c([nH]c3ccccc32)c1=O -0.971%
